Source: PubChem BioAssay
Inconclusive means that the source gave no clear call. Such entries were picked first, then a sample of the others. The source made the active and inactive calls.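 Rule for the calls: active = viability at or under a set limit in both replicates, limit being median viability minus 3 SD (cut at about 48% in these data, passing the limit was not always enough); inconclusive = at or under the limit in just one replicate; inactive = at or above the limit in both replicates.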

Assay: H69AR cell proliferation blockers – human, duplicate replicates, primary screen (AID 580);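 note: 100% = mean luminescence of untreated wells and 0% = no signal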
Conditions: H69AR lung tumor cells viability, ATP luminescence, 72 h; at 10 µM; active compounds read low
With CCn1c2ccccc2c2cc(NC(=O)Cc3ccc(S(=O)(=O)N4CCOCC4)s3)ccc21 the viability was inconclusive: 50.1%.
For Cc1ccc(C)c(-c2nc3ccc(N)cc3[nH]2)c1, the viability was inconclusive: 52.8%.
With Cc1ccc(S(=O)(=O)c2cc3c(=O)n4ccccc4nc3n(CC3CCCO3)c2=N)cc1C (stereo not given) the viability was inconclusive: 55.9%.
With Cc1ccc2c(CC(=O)OCc3csc(C)n3)coc2c1 the viability was inactive: 98.5%.
For CN1CCN(CCCN2c3ccccc3Sc3ccc(C(F)(F)F)cc32)CC1, the viability was inconclusive: 1.03%.
For N#CC(C(=O)NCCc1ccccc1)c1nc2ccccc2nc1N1CCOCC1 (stereo not given), the viability was inconclusive: 59.2%.
With CC(=O)O[C@H]1C(=O)[C@]2(C)[C@H]([C@H](OC(=O)c3ccccc3)[C@]3(O)C[C@H](OC(=O)[C@H](O)[C@@H](NC(=O)c4ccccc4)c4ccccc4)C(C)=C1C3(C)C)[C@]1(OC(C)=O)CO[C@@H]1C[C@@H]2O the viability was inconclusive: 12.6%.
With Cc1ccc(Cn2c(=N)c(C(=O)NCc3ccco3)cc3c(=O)n4ccccc4nc32)cc1 the viability was inconclusive: 47.1%.
In the case of CCCCCSc1nc2c(cnn2-c2ccccc2)c(=O)[nH]1, the viability is reported as inconclusive: 46.3%.
With CC(C)=CCCC(C)CN(C)CCc1ccccn1 (stereo not given) the viability was inactive: 98.6%.
In the case of c1ccc(-n2ncc3c(NCc4cccs4)ncnc32)cc1, the viability is reported as inconclusive: 41.8%.
For CC(=O)Oc1cccc(/C=c2\sc3nc(-c4ccco4)nn3c2=O)c1, the viability was inconclusive: 52.2%.
With CN(C)CC(C(=O)c1ccccc1)c1ccccc1 (stereo not given) the viability was active: 1.17%.
For O=C(Nc1ccccc1-c1nc2ccccc2o1)c1ccc2c(c1)OCCO2, the viability was inconclusive: 35.7%.
For COC(=O)CCC(=O)Nc1ccc(OC)cc1, the viability was inactive: 85.1%.
In the case of C=CCn1c(COc2ccc(Cl)cc2)nnc1SCC(=O)N1CC(=O)Nc2ccccc21, the viability is reported as inconclusive: 62.7%.
With COc1ccc(C2C(C#N)=C(N)Oc3cc4c(cc32)OCO4)cc1 (stereo not given) the viability was active: 32.8%.
For COC(=O)CN1C(=O)CC(C)(C)S(=O)c2ccccc21 (stereo not given), the viability was inactive: 99.3%.
With CCOC(=O)N1CCN(CC(=O)Nc2cc(C)nn2-c2nc3ccccc3s2)CC1 the viability was inconclusive: 37.7%.
For C[C@]12CC[C@@H]3c4ccc(O)cc4CC[C@H]3[C@@H]1CC[C@@H]2OC(=O)CCC(=O)O, the viability was inactive: 105%.
For COC1=CC(=O)CC(C)C12Oc1c(Cl)c(OC)cc(OC)c1C2=O (stereo not given), the viability was inconclusive: 18.1%.
In the case of N#Cc1c(N)nc(SCc2ccncc2)c(C#N)c1-c1cccs1, the viability is reported as inconclusive: 52.3%.
In the case of O=C(Nc1sc2c(c1C(=O)NCc1ccco1)CCCC2)c1ccc2c(c1)OCO2, the viability is reported as inconclusive: 61.4%.
With Cn1c(C(=O)OCC(=O)NCC2CCCO2)cc2sccc21 (stereo not given) the viability was inactive: 92.7%.
In the case of CCCCCCCCCCCCCCCC(O)C(N)CO (stereo not given), the viability is reported as inconclusive: 1.42%.
For CCOC(=O)c1[nH]c2ccc(Br)cc2c1NC(=O)CCN1CCC(C(=O)OCC)CC1, the viability was inconclusive: 45.2%.
In the case of COc1ccc(N2CCN(Cc3cc(=O)oc4cc(C)c(Cl)c(C)c34)CC2)cc1, the viability is reported as inconclusive: 74.8%.
In the case of CN(C)c1ccc(/C=C/C(O)=C2/C(=O)N(C)C3(C)CC2c2ccccc2O3)cc1 (stereo not given), the viability is reported as inconclusive: 37.5%.
In the case of O=C(CSc1nnc(-c2cccs2)o1)NCC1CN(Cc2ccccc2)CCO1 (stereo not given), the viability is reported as inactive: 85.1%.
In the case of N#C/C(C(=O)NCc1ccco1)=C1/SC(Cc2ccc(F)cc2)C(=O)N1c1ccccc1 (stereo not given), the viability is reported as inconclusive: 48%.
For CC(C)C(=O)Nc1ccc(C(=O)NCc2cccnc2)cc1, the viability was inconclusive: 10.8%.
With COc1cc(-n2nc(C)c3c2OC(N)=C(C#N)C3c2ccccc2)c(Cl)c(Br)c1O (stereo not given) the viability was inconclusive: 69.5%.
In the case of Cc1ccc(/C=c2\s/c(=C(/C#N)C(=O)N3CCCC3)n(Cc3ccco3)c2=O)s1, the viability is reported as inconclusive: 43.9%.
For CC(C)(C)C(=O)Cn1c(=N)n(Cc2ccccc2)c2ccccc21, the viability was inactive: 76.2%.
In the case of COc1ccccc1NC(=O)C1=C(C)NC(SCC(=O)c2ccc(C)cc2)=C(C#N)C1c1ccco1 (stereo not given), the viability is reported as inconclusive: 17.6%.
In the case of CCN(CC)CCCNC(=O)c1cn(C)c2ccc(S(=O)(=O)N(C)C)cc2c1=O, the viability is reported as inactive: 99.4%.
For COc1ccc2c(c1OC)C(=O)OC2Nn1cncn1 (stereo not given), the viability was inactive: 103%.
With CCOc1ccc(NCc2nnc(SCC(=O)Nc3cc(C)on3)n2-c2ccccc2OC)cc1 the viability was active: 13.1%.
With CCC(Sc1nc2n[nH]c(C)c2c(=N)n1-c1cc(Cl)ccc1C)C(=O)N1CCOCC1 (stereo not given) the viability was inconclusive: 46.3%.
For Cc1c(NC(=O)c2ccc(=O)oc2)c(=O)n(-c2ccccc2)n1C, the viability was inconclusive: 48.5%.
